# Reference: the supplement of paper PMC3694890
# ± gives the uncertainty stated by the source. Some of the results follow. Phosphotyrosine is written y.
# Biological target: GRB2 (endogenous complexes from cell lysate), P62993
# Assay: GRB2 complex binding differential signal (pY peptide minus Ala control peptide) (fluorescence intensity units); higher = stronger GRB2 complex binding
# Conditions: MCF7
# 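Also: phosphopeptide probes on the chip at 1–4 µM, lysate proteins bound in 20 mM Tris pH 7.0 buffer with 140 mM NaCl, 1% Triton X-100 and 5% glycerol.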
row,Binder,GRB2 complex binding differential signal
1,ySEENK [IGF1R_1281/A1],429 ± 230
2,yAHMNG [IGF1R_1346/A1],852 ± 320
3,yASVNP [IGF1R_973/A1],2400 ± 350
4,yFSAAD [IGF1R_980/A1],1300 ± 300
5,yLRDRS [ADCY2_11/A1],3220 ± 830
6,yLRTLP [INSRR_597/A1],1520 ± 330
7,yVPDEW [INSR_1011/A1],190 ± 1000
8,yETDYY [INSR_1185/A1],111 ± 160
9,yYRKGG [INSR_1189/A1],1300 ± 340
10,yRKGGK [INSR_1190/A1],-192 ± 240
11,yEEHIP [INSR_1355/A1],821 ± 200
12,yTHMNG [INSR_1361/A1],1200 ± 270
13,yALVSL [INSR_401/A1],131 ± 170
14,yASSNP [INSR_992/A1],1510 ± 550
15,yLSASD [INSR_999/A1],1040 ± 420
16,yKLSKL [ALK_1078/A1],772 ± 470
17,yAVAAT [ITGA5_328/A1],558 ± 270

row,Binder,GRB2 complex binding differential signal
1,yDYQTN [ITK_180/A1],27.8 ± 220
2,yTSSTG [ITK_512/A1],1910 ± 300
3,yYTVKD [JAK1_1034/A1],5080 ± 2200
4,yTVKDD [JAK1_1035/A1],1140 ± 200
5,yIPETL [JAK1_220/A1],-212 ± 460
6,yLNIKE [JAK1_3/A1],37800 ± 6600
7,yYKVKE [JAK2_1007/A1],3000 ± 510
8,yKVKEP [JAK2_1008/A1],1280 ± 900
9,yELLTE [JAK2_813/A1],-72.9 ± 630
10,yNPNYC [ALK_1092/A1],82.5 ± 650
11,yDPLQD [JAK2_868/A1],-879 ± 880
12,yLGTKR [JAK2_966/A1],570 ± 340
13,yIHRDL [JAK2_972/A1],171 ± 230
14,yYVVRE [JAK2_980/A1],564 ± 810
15,yVVREP [JAK2_981/A1],370 ± 1000
16,yELLSD [JAK3_785/A1],249 ± 180

# Same assay, conditions: MCF10A
row,Binder,GRB2 complex binding differential signal
1,ySEENK [IGF1R_1281/A1],619 ± 170
2,yAHMNG [IGF1R_1346/A1],644 ± 250
3,yASVNP [IGF1R_973/A1],2630 ± 760
4,yFSAAD [IGF1R_980/A1],717 ± 300
5,yLRDRS [ADCY2_11/A1],1070 ± 1600
6,yLRTLP [INSRR_597/A1],1130 ± 380
7,yVPDEW [INSR_1011/A1],-49.2 ± 420
8,yETDYY [INSR_1185/A1],410 ± 570
9,yYRKGG [INSR_1189/A1],434 ± 210
10,yRKGGK [INSR_1190/A1],141 ± 230
11,yEEHIP [INSR_1355/A1],753 ± 390
12,yTHMNG [INSR_1361/A1],984 ± 400
13,yALVSL [INSR_401/A1],260 ± 210
14,yASSNP [INSR_992/A1],1220 ± 340
15,yLSASD [INSR_999/A1],1190 ± 420
16,yKLSKL [ALK_1078/A1],615 ± 300
17,yAVAAT [ITGA5_328/A1],1820 ± 360

row,Binder,GRB2 complex binding differential signal
1,yDYQTN [ITK_180/A1],-136 ± 230
2,yTSSTG [ITK_512/A1],3330 ± 750
3,yYTVKD [JAK1_1034/A1],3490 ± 1200
4,yTVKDD [JAK1_1035/A1],775 ± 290
5,yIPETL [JAK1_220/A1],666 ± 300
6,yLNIKE [JAK1_3/A1],16000 ± 3800
7,yYKVKE [JAK2_1007/A1],2660 ± 420
8,yKVKEP [JAK2_1008/A1],2550 ± 420
9,yELLTE [JAK2_813/A1],465 ± 230
10,yNPNYC [ALK_1092/A1],225 ± 220
11,yDPLQD [JAK2_868/A1],-33.7 ± 310
12,yLGTKR [JAK2_966/A1],381 ± 150
13,yIHRDL [JAK2_972/A1],559 ± 270
14,yYVVRE [JAK2_980/A1],581 ± 360
15,yVVREP [JAK2_981/A1],2670 ± 700
16,yELLSD [JAK3_785/A1],282 ± 190

# Same assay, conditions: MDA-MB-231
row,Binder,GRB2 complex binding differential signal
1,ySEENK [IGF1R_1281/A1],1260 ± 530
2,yAHMNG [IGF1R_1346/A1],264 ± 240
3,yASVNP [IGF1R_973/A1],1030 ± 440
4,yFSAAD [IGF1R_980/A1],679 ± 370
5,yLRDRS [ADCY2_11/A1],550 ± 260
6,yLRTLP [INSRR_597/A1],1420 ± 490
7,yVPDEW [INSR_1011/A1],252 ± 350
8,yETDYY [INSR_1185/A1],1100 ± 260
9,yYRKGG [INSR_1189/A1],273 ± 260
10,yRKGGK [INSR_1190/A1],215 ± 220
11,yEEHIP [INSR_1355/A1],383 ± 490
12,yTHMNG [INSR_1361/A1],557 ± 360
13,yALVSL [INSR_401/A1],695 ± 310
14,yASSNP [INSR_992/A1],1160 ± 570
15,yLSASD [INSR_999/A1],857 ± 470
16,yKLSKL [ALK_1078/A1],336 ± 310
17,yAVAAT [ITGA5_328/A1],155 ± 320

row,Binder,GRB2 complex binding differential signal
1,yDYQTN [ITK_180/A1],443 ± 380
2,yTSSTG [ITK_512/A1],817 ± 280
3,yYTVKD [JAK1_1034/A1],1270 ± 490
4,yTVKDD [JAK1_1035/A1],656 ± 420
5,yIPETL [JAK1_220/A1],760 ± 330
6,yLNIKE [JAK1_3/A1],9430 ± 1800
7,yYKVKE [JAK2_1007/A1],998 ± 370
8,yKVKEP [JAK2_1008/A1],876 ± 420
9,yELLTE [JAK2_813/A1],1210 ± 360
10,yNPNYC [ALK_1092/A1],137 ± 330
11,yDPLQD [JAK2_868/A1],390 ± 270
12,yLGTKR [JAK2_966/A1],794 ± 280
13,yIHRDL [JAK2_972/A1],267 ± 370
14,yYVVRE [JAK2_980/A1],520 ± 390
15,yVVREP [JAK2_981/A1],991 ± 420
16,yELLSD [JAK3_785/A1],763 ± 390

# Same assay, conditions: T47D
row,Binder,GRB2 complex binding differential signal
1,ySEENK [IGF1R_1281/A1],1310 ± 1200
2,yAHMNG [IGF1R_1346/A1],620 ± 1200
3,yASVNP [IGF1R_973/A1],685 ± 2200
4,yFSAAD [IGF1R_980/A1],888 ± 1200
5,yLRDRS [ADCY2_11/A1],729 ± 1100
6,yLRTLP [INSRR_597/A1],1820 ± 1400
7,yVPDEW [INSR_1011/A1],-483 ± 3000
8,yETDYY [INSR_1185/A1],2060 ± 1200
9,yYRKGG [INSR_1189/A1],734 ± 2500
10,yEEHIP [INSR_1355/A1],589 ± 1200
11,yTHMNG [INSR_1361/A1],1090 ± 1400
12,yALVSL [INSR_401/A1],1230 ± 1200
13,yASSNP [INSR_992/A1],2100 ± 1700
14,yLSASD [INSR_999/A1],798 ± 1300
15,yKLSKL [ALK_1078/A1],944 ± 1000
16,yAVAAT [ITGA5_328/A1],-371 ± 990

row,Binder,GRB2 complex binding differential signal
1,yDYQTN [ITK_180/A1],441 ± 1000
2,yTSSTG [ITK_512/A1],803 ± 1500
3,yYTVKD [JAK1_1034/A1],3150 ± 1400
4,yTVKDD [JAK1_1035/A1],564 ± 1100
5,yIPETL [JAK1_220/A1],597 ± 830
6,yLNIKE [JAK1_3/A1],14600 ± 6600
7,yYKVKE [JAK2_1007/A1],264 ± 720
8,yKVKEP [JAK2_1008/A1],278 ± 870
9,yELLTE [JAK2_813/A1],715 ± 950
10,yNPNYC [ALK_1092/A1],-261 ± 830
11,yDPLQD [JAK2_868/A1],170 ± 1200
12,yLGTKR [JAK2_966/A1],375 ± 850
13,yIHRDL [JAK2_972/A1],192 ± 820
14,yYVVRE [JAK2_980/A1],115 ± 1000
15,yVVREP [JAK2_981/A1],463 ± 820
16,yELLSD [JAK3_785/A1],61.4 ± 810
